Source: the RNAGym collection of RNA variant scans (doi:10.7554/elife.90254)
The source gives no read counts; variants with many changes may rest on few reads.

B1: LINE1-mini (parent)
chain: GGCAGAGCUCAACACAGCGUGGCAAAGUGGCUGUGGCUAGACUGCC

Variants of: B1
Experiment: self-cleavage, relative activity (ratio to wild type); higher = more cleavage; in vitro, sequencing; the parent is a self-cleaving ribozyme

| Variant | self-cleavage |
| --- | --- |
| C8U C13U C15A G30U | 0.13 |
| C8U A11U C15U U28G U34C | 0.02 |
| C8U C18G G21C G35U C46U | 0.03 |
| C8U A14G C15U G40U | 0.12 |
| C8U A11C A26U | 0.01 |
| C8U C10U A11U U32C | 0.02 |
| C8U A11C G17C C45U | 0.01 |
| C8U C10A C13U G29U G36U | 0.02 |
| C8U C18U G40U G44C | 0.15 |
| C8U C18U A25G | 0.19 |
| C8U C18U A25U | 0.25 |
| C8U A25U U28G | 0.14 |
| C8U C18U U20C U43A C45G | 0.32 |
| C8U C15A G33A | 0.18 |
| C8G U9A C15U G19C U38C C45A | 0.05 |
| C8U C15U G19A G36C | 0.09 |
| C8U G21A U28G A41U | 0.89 |
| C8U A24G U28C C46G | 0.07 |
| C8U A16C G40C | 0 |
| C8U C23U U32G A41U | 0.18 |
| C8U A16U C31A C37U U43C | 0.11 |
| C8U G19A A24G C31A U34G U43A | 0.17 |
| C8U C15G A26U C37G A39C | 0.26 |
| C8U A14C C15A U20C C31U | 0.09 |

| Variant | self-cleavage |
| --- | --- |
| C8U C15U G40U | 0.29 |
| C8U C31U U32A G44U | 0.2 |
| C8U A11U C15U G21U G30U | 0.05 |
| C8U C18U G19A | 1.63 |
| C8G U9A C31A C42A | 0.06 |
| C8U A16G C18U C37G | 0.05 |
| C8U C13A C15U A16G | 0.04 |
| C8U A14U C15U C31A | 0.32 |
| C8U G17C A24C A41C | 0.05 |
| C8U C10A G40U | 0.04 |
| C8U G21A U34G G36U | 0.05 |
| C8U C10G G21U G27C A39G C42A | 0.01 |
| C8U C31U G40A A41G | 0.28 |
| C8U C10G C13U C31A | 0.05 |
| C8U A11G G19C | 0.02 |
| C8U A16U C46U | 0.06 |
| C8U A16U C46A | 0.14 |
| C8U C31A C42G | 0.04 |
| C8U G19A G36A C46U | 0.83 |
| C8U G17U A25C G27A | 0.08 |
| C8U A12U A16U G44U | 0.05 |
| C8U C10U A16C A26U G30U U38A | 0.01 |
| C8U C15A A16U G35U | 0.12 |
| C8G U20A G22C A24U A25G | 0.59 |

| Variant | self-cleavage |
| --- | --- |
| C8U A12G A16C U32C U34G | 0.06 |
| C8U A12G U20C C23A | 0.07 |
| C8U A14C G19U C31U | 0.01 |
| C8U A11C G17U | 0.03 |
| C8U G19A G21U A25U | 0.32 |
| C8U A12G G33A U38G | 0.02 |
| C8U C13G A14C A24C U43C | 0.02 |
| C8U C18A A25C C46G | 0.03 |
| C8U C23A G44U | 0.03 |
| C8U G21C G22A G40U | 0.09 |
| C8U A11C A16C C18U C31U G40U | 0 |
| C8U A11U G21U | 0.01 |
| C8U G17A G19U G33U C45A | 0.05 |
| C8U C15U C18G G35U | 0.78 |
| C8U C15U U20G A25C G29A | 0.48 |
| C8U G21A G29A U43G G44U | 0.08 |
| C8U C18G G30U G33U U34C G35U G40A C46U | 0.01 |
| C8G U9A C15U C18U A25U | 0.05 |
| C8U C31G U43G | 0.3 |
| C8G U28A G40U | 0.05 |
| C8U C13G A16U | 0.13 |
| C8U A25C G29C | 0.09 |
| C8U A11G G17C A24C | 0.03 |
| C8U A16G G27U | 0.03 |

| Variant | self-cleavage |
| --- | --- |
| C8U C23U G27A | 0.19 |
| C8U G21U C46A | 0.46 |
| C8U A16G U20C G33U | 0.01 |
| C8U C10U C15A C37A C46A | 0.06 |
| C8G U34G A39G G40A | 0.04 |
| C8U A24G C31A A39U | 0.32 |
| C8U A14U U32C G36U C46A | 0.03 |
| C8U C37G C42A | 0.02 |
| C8U A25U G29U | 0.12 |
| C8U G21C U43A G44A | 0 |
| C8U A11C A14G A39U | 0.01 |
| C8U A11C G17C C46A | 0 |
| C8U A11G C15U G21C | 0.04 |
| C8U A11U A41G | 0.02 |
| C8U C15G U28G C31U | 0.09 |
| C8U G17U G33A G40U C46G | 0.06 |
| C8U C23U A26U G33C G36C | 0.1 |
| C8U C13G U32C C42U C45U C46U | 0.05 |
| C8U A24U C31G G35C | 0.07 |
| C8U G21C C46A | 0.78 |
| C8U A11G A12U U20G U34G C37A U43A G44C | 0 |
| C8U A14U A16C | 0.03 |
| C8U C37G A41U | 0.04 |
| C8U C18U G29U | 0.04 |

| Variant | self-cleavage |
| --- | --- |
| C8U C13A G21U G27C U28C U34A C45A | 0.16 |
| C8U G21U U38A C45U | 0.04 |
| C8U C10A C18A C45A C46U | 0.03 |
| C8U A26C C37A A39G U43A | 0.08 |
| C8U C15A C23A G33U U38G C42G | 0.02 |
| C8U C10G A16C G22U C46U | 0.02 |
| C8U A11U G36U | 0 |
| C8U C18U G36A | 0.71 |
| C8U C23A G35A | 0.59 |
| C8G U9G C10G G40C | 0.02 |
| C8U G17U U32G | 0.06 |
| C8U C15U U38C | 0.18 |
| C8U C13U C15G G17C U28C G40U | 0.17 |
| C8U C23G C42U | 0.02 |
| C8G U9G G36A C37G C46G | 0.07 |
| C8U A16U A26U A39G | 0.05 |
| C8U C31A U34C G40C C46A | 0.1 |
| C8U C15A A25U U38A | 0.02 |
| C8U G17A G21U A41G | 0.06 |
| C8U C15A U32A C37G C45G | 0.08 |
| C8U G19A C42A | 0.1 |
| C8U G22A G35A G40A | 0.2 |
| C8U A14G C23A G40A A41G | 0.01 |
| C8U G17A A25C C37U C45U | 0.15 |

| Variant | self-cleavage |
| --- | --- |
| C8U C13A U28C C45U | 0.18 |
| C8U A25U A39G G40A A41C | 0.02 |
| C8U A25U G27C U38G | 0.07 |
| C8U G17U G29U | 0.53 |
| C8U G17U G29C | 0.19 |
| C8U G19U U43C G44U | 0.2 |
| C8G U20C A25C G29A G36C | 0.22 |
| C8U G21C C23U | 0.09 |
| C8U C15G G33A | 0.07 |
| C8G U20A C31A G33U | 0.01 |
| C8U C10A C15G G30A U38G A39U | 0.02 |
| C8U A14U G40U | 0.1 |
| C8U C10A G17A G21U G36C C46G | 0.03 |
| C8U C10A A16C A25C G27U | 0.01 |
| C8U A11C C13A G35U C37U | 0.04 |
| C8U A39U U43A | 0.01 |
| C8U C13A A16G U38C G44C | 0.05 |
| C8U A12U U43C | 0.07 |
| C8U A39C U43C C46A | 0.15 |
| C8G U34C G36A C45U | 0.04 |
| C8G U9C G19A U20C G36C G40C A41C C45U | 0 |
| C8G U20A A39U | 0.06 |
| C8G U9G C15G | 0.11 |
| C8G U34C A39C C46A | 0.01 |

| Variant | self-cleavage |
| --- | --- |
| C8U G17U U43G | 0.02 |
| C8U A14U C15G G33A | 0.69 |
| C8U G17A A25U U38G | 0.02 |
| C8U C13G G22C G36U | 0.13 |
| C8U G17C A26U A41C | 0.02 |
| C8U A16U G19C G40C U43C | 0.02 |
| C8U A12C C23A | 0.02 |
| C8U C10U C45G | 0.02 |
| C8U C15A A25C U28G C45A C46G | 0.1 |
| C8U C10A A16G G30U | 0.07 |
| C8G U32G C42A | 0.02 |
| C8U C18U U20C A26C G27U | 0.03 |
| C8U G21A G30U G44U | 0.14 |
| C8U G21A G36U U38A C42A | 0.09 |
| C8U A25G A41C | 0.14 |
| C8U A11C G33C G36C C45U | 0 |
| C8G U20A U43C | 0 |
| C8U A12U A25G G30U A39G | 0.06 |
| C8U A12C A16C G35A A39G | 0 |
| C8U A16G C31U G44A | 0.02 |
| C8U C13G G27A G33C G35C C45A | 0.01 |
| C8U G19U U32A U34A | 0.04 |
| C8G U9G C10A C13G G27C U38G C46U | 0.01 |
